The whole screen tested about 330,000 compounds, of which about 1,700 (0.52%) were called active. Inconclusive means that the source gave no clear call. Such entries were picked first, then a sample of the others. Calls follow the shape of the dose curve; as a rule, active = well fitted inhibition curve with a large enough effect; inconclusive = small, poorly fitted or top-dose-only effect; inactive = no such curve, though single readings can be large or run the other way. A potency beside an inconclusive call is a rough fit, not a confirmed value. Some structures have more than one record in an assay (separate samples or runs), and their calls can disagree.
molecular target: Beta-lactamase (Escherichia coli (strain K12)) (UniProt P00811); assay: qHTS Inhibitors of AmpC Beta-Lactamase (assay without detergent); conditions: AmpC nitrocefin hydrolysis, absorbance 480 nm, 0.0001% Triton; activity change, negative = inhibition: at 57.1 µM (top of the series) unless noted; also: nearly all actives have a fitted effect of over 20% in size;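 as to activity change, negative = inhibition: plate controls were no compound for no effect and no enzyme for full effect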
Chain of UniProt P00811 (P00811 whole entry, looked up): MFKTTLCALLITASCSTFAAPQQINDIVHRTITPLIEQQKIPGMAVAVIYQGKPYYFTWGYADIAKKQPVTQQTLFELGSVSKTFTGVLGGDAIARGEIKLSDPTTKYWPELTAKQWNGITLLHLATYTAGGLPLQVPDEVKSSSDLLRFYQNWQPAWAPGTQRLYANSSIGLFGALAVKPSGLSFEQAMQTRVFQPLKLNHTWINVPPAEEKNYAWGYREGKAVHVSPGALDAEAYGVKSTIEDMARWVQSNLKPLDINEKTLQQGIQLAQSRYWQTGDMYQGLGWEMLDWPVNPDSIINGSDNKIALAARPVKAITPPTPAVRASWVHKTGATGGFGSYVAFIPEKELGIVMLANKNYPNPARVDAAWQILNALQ
In short: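 20 mM phosphate pH 7.0 + 0.01% (detergent screen) or 0.0001% Triton X-100; 5.3 nM AmpC reagent; cpd preinc 15 min RT; nitrocefin (800 uM stock) to start; A480 q20 s × 4 min; Activity was normalised to no-enzyme and no-compound control wells.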
Potency is read from the fitted curve at half-maximal effect; tags tell the direction and shape of the fitted curve.

SMILES | activity change, negative = inhibition | Potency
Cc1cccc(COCC(Cc2ccccc2)N2CCN(C(=O)c3ccc(C(F)(F)F)cc3)CCC2=O)c1 (configuration not stated) | inactive: 164% | 
Cc1cccc(C(=O)NNC(=O)c2ccc(NC(=O)C(C)(C)C)cc2)c1 | inactive: -24.6% | 
COc1ccc(C(=O)/C=C/c2ccccc2)c(O)c1 |  | inconclusive: 10 µM [inhibitor, full curve, poor fit]
Cc1ccc(NS(=O)(=O)c2cc(C(=O)Nc3cccnc3)ccc2C)cc1 |  | active: 28.2 µM
Cc1cc(Cl)ccc1Oc1ccccc1C(=O)CC#N |  | active: 3.98 µM
Cc1cc(NC(=O)CSc2ccc3nnc(-c4ccccc4)n3n2)no1 |  | inconclusive: 1.12 µM [inhibitor, partial curve, poor fit]
CCCC(=O)Nc1ccc2oc(-c3cccnc3)nc2c1 |  | inconclusive: 8.91 µM [inhibitor, partial curve, poor fit]
CCc1ccc(/C=N/Nc2nn[nH]n2)cc1 | inactive: -20.1% | 
O=C1/C(=C/c2cccnc2)SC(=S)N1c1ccc(O)cc1 |  | inconclusive: 28.2 µM [inhibitor, partial curve]
CCCC[C@]12Cc3cc(C#N)ccc3C(O1)c1c(cc(C)n(-c3ccccc3)c1=O)O2 |  | inconclusive: 3.98 µM [inhibitor, single point]
C[C@@H]1CN([C@@H](C)CO)C(=O)c2cccc(NS(C)(=O)=O)c2O[C@H]1CN(C)Cc1ccc(C(=O)O)cc1 | inactive: -29.3% | 
CC(C)c1ccc(NC(=O)COC(=O)C2=COCCO2)cc1 | inactive: -8.93% | 
CCOc1ccc2ccccc2c1C(=O)N[C@@H]1C(=O)N2[C@@H]1SC(C)(C)[C@@H]2C(=O)O |  | active: 5.62 µM
CC1=C(C(=O)OC2CCCCC2)C(c2cccs2)n2c(nc3ccccc32)N1 (configuration not stated) |  | inconclusive: 39.8 µM [inhibitor, single point]
CCOc1ccc(NS(=O)(=O)c2ccc(C(=O)N3CCCC(C)C3)cc2)cc1 (configuration not stated) |  | inconclusive: 35.5 µM [inhibitor, single point]
Cc1ccc(S(=O)(=O)NC(CC(=O)NCc2ccco2)c2ccco2)cc1 (configuration not stated) |  | inconclusive: 8.91 µM [inhibitor, single point]
CCOc1ccc(CN2C(=O)CC(=O)N(S(=O)(=O)c3ccc(OCC)cc3)C2=O)cc1 |  | inconclusive: 7.94 µM [inhibitor, partial curve]
CN(C)S(=O)(=O)Oc1ccccc1C(=O)Nc1cccc(C(F)(F)F)c1 | inactive: -8.74% | 
COC(=O)c1nc(-c2ccc3c(n2)C(=O)C(N)=C(OC)C3=O)c(N)c(-c2ccc(OC)c(OC)c2O)c1C | inactive: -11.4% | 
CCOC(=O)CC(=O)CSc1ccc2nnc(-c3ccccc3)n2n1 |  | active: 0.158 µM
Cc1ccc(-c2nc(CS(=O)(=O)CC(=O)N3CC(C)CC(C)C3)c(C)o2)cc1 (configuration not stated) |  | active: 39.8 µM
CCNC(=S)N(Cc1ccco1)Cc1cc2cc3c(cc2[nH]c1=O)OCCO3 | inactive: -33.7% | 
COC(=O)C1(C(F)(F)F)N=C2Sc3ccccc3N2C(N2CCOCC2)=N1 (configuration not stated) |  | active: 0.316 µM
O=C(C(=O)N1CCN(c2cccc(Cl)c2)CC1)c1c[nH]c2ccccc12 |  | inconclusive: 5.01 µM [inhibitor, partial curve]

SMILES | activity change, negative = inhibition | Potency
COc1ccc(Cl)cc1C(=O)NNC(=O)COC(=O)CCN=C1NS(=O)(=O)c2ccccc21 |  | inconclusive: 39.8 µM [inhibitor, single point]
O=C(COc1ccccc1[N+](=O)[O-])NNC(=O)Nc1cccc2ccccc12 |  | inconclusive: 28.2 µM [inhibitor, single point]
O=C(Cc1nnc(NC(=O)Nc2ccc(Cl)cc2)s1)NCc1ccccc1 |  | inconclusive: 39.8 µM [inhibitor, single point]
C/C(=N\NC(=O)c1cc(Br)ccc1O)c1cccc(NC(=O)c2ccccc2F)c1 |  | inconclusive: 10 µM [inhibitor, partial curve, poor fit]
COc1cc(CNCCNC(=O)c2nonc2N)ccc1OCc1ccc(Cl)nc1 |  | inconclusive: 39.8 µM [inhibitor, single point]
Cc1nc(CCNC(=O)Cc2ccc(Cl)cc2)cs1 |  | inconclusive: 100 µM [inhibitor, partial curve, poor fit]
O=C(Nc1cccnc1)c1ccc(COc2ccccc2Br)cc1 | inactive: -10.7% | 
Cc1ccnc2c(N3C(=O)C4C5C=CC(C5)C4(C)C3=O)cccc12 (configuration not stated) |  | active: 7.08 µM
COc1ccc(C(c2nnnn2Cc2ccccc2)N2CCN(c3nc4ccccc4s3)CC2)cc1OC (configuration not stated) | inactive: 120% | 
Cc1nnc(N2C(=O)C(O)=C(C(=O)c3ccco3)C2c2ccc(F)cc2)s1 (configuration not stated) |  | inconclusive: 0.316 µM [inhibitor, full curve, poor fit]
CC(C)Cn1c(SCC(=O)Nc2cc(Cl)c(Cl)cc2Cl)nc(O)cc1=O |  | inconclusive: 3.98 µM [inhibitor, full curve, poor fit]
Cn1c(-c2cccc(Br)c2)cnc1NCc1cccnc1 |  | inconclusive: 8.91 µM [inhibitor, single point]
O=C(/C=C/c1ccc([N+](=O)[O-])cc1)Nc1cccc(C(=O)Nc2ccccc2C(=O)O)c1 |  | active: 35.5 µM
CN1CCN(c2ccc([N+](=O)[O-])c(NCc3ccco3)c2)CC1 |  | inconclusive: 15.8 µM [inhibitor, partial curve]
CC1(C)CC(=O)C(C=Nc2cccnc2)=C(O)C1 | inactive: -5.71% | 
N#CCC(=O)Nc1ccc(C(=O)OC(C(=O)Nc2cc(C(F)(F)F)ccc2Cl)c2ccccc2)cc1 (configuration not stated) |  | active: 7.08 µM
FC(F)(F)c1nnc2sc(-c3ccco3)nn12 |  | inconclusive: 8.91 µM [inhibitor, single point]
Cc1ccc(N2CC(C(=O)N/N=C/c3cccc([N+](=O)[O-])c3)CC2=O)cc1 (configuration not stated) |  | inconclusive: 1.26 µM [inhibitor, partial curve, poor fit]
CC(C)CC(=O)NC(=S)Nc1ccccn1 | inactive: 1.63% | 
CCOC(=O)C1CCN(S(=O)(=O)c2c(Cl)ccc3nonc23)CC1 | inactive: -0.202% | 
O=C(COC(=O)c1cc(NS(=O)(=O)c2cccs2)ccc1O)Nc1cc(Cl)ccc1Cl |  | inconclusive: 7.94 µM [inhibitor, partial curve]
COc1ccc(/C=N\NC(=O)CNC(=O)C(c2ccccc2)c2ccccc2)cc1[N+](=O)[O-] |  | active: 3.98 µM
c1cncc(CNc2nc(-c3cccnc3)nc3ccccc23)c1 | inactive: -22% | 
CCOc1ccc(N2C(=O)/C(=C/c3ccco3)C(=O)NC2=S)cc1 |  | active: 12.6 µM

SMILES | activity change, negative = inhibition | Potency
CCOc1ccc(NS(=O)(=O)c2cc(NC(=O)CCC(=O)c3cccs3)ccc2Cl)cc1 |  | inconclusive: 2.82 µM [inhibitor, partial curve, poor fit]
COC(=O)c1ccc(-n2c(C)ccc2-c2ccccc2)cc1 | inactive: -25% | 
CC(C)(C)n1nnnc1C(c1cccc(C#N)c1)N1CCC(Cc2ccccc2)CC1 (configuration not stated) | inactive: -18.6% | 
COc1ccccc1C(=O)N1CCN(c2ccc(N3CCOCC3)nn2)CC1 |  | inconclusive: 39.8 µM [inhibitor, single point]
NC(=O)CC(NC(=O)c1ccccc1)c1ccc(NCc2ccccc2)c([N+](=O)[O-])c1 (configuration not stated) | inactive: -23% | 
CCCCn1nc2cc(C(=O)N(CC)c3ccc(OC)cc3)ccc2c1OCC |  | inconclusive: 0.316 µM [inhibitor, full curve, poor fit]
COc1cc(CNc2ncn[nH]2)ccc1OCc1cccc(C)c1 | inactive: 0.119% | 
COc1cc(/C=N/NC(=O)c2ccoc2C)ccc1O | inactive: -12.8% | 
O=C(N[C@@H](Cc1ccccc1)C(=O)NC1CCCCC1)c1ccco1 | inactive: 7.06% | 
COc1cc(C(=O)Nc2nc(-c3ccc(C)cc3)cs2)ccc1OCC(=O)N1CCOCC1 | inactive: 135% | 
O=c1c(Cc2ccc(F)cc2)c(O)ccn1C1CC1 |  | inconclusive: 6.31 µM [inhibitor, single point]
Cc1ccc(C(=O)CSc2nc(C)cc(C)c2C(N)=O)cc1 |  | inconclusive: 0.282 µM [inhibitor, full curve, poor fit]
Cc1ccc(-n2c(SCC(=O)NCc3ccco3)nc3c([nH]c4ccccc43)c2=O)cc1 |  | inconclusive: 7.94 µM [inhibitor, partial curve]
Cc1ccc(NC(=O)NC2CCCN2S(=O)(=O)c2ccc(Cl)cc2)cc1 (configuration not stated) |  | inconclusive: 3.98 µM [inhibitor, partial curve]
CCc1ccc(C2CC(=O)N3CN(c4ccccc4)CSC3=C2C#N)cc1 (configuration not stated) |  | inconclusive: 20 µM [inhibitor, partial curve]
N#CCC(=O)N/N=C\c1cccc(OC/C=C/c2ccccc2)c1 |  | active: 12.6 µM
COc1ccc(C(=O)NC2CCN(C(=S)NCc3ccco3)CC2)cc1 |  | inconclusive: 2.51 µM [inhibitor, partial curve, poor fit]
CCCN(CC(=O)Nc1ccccc1C)C(=O)c1ccc(C2SCCS2)cc1 |  | inconclusive: 31.6 µM [inhibitor, single point]
COc1ccccc1NC(=O)Nc1nc(CC(=O)NCc2ccccn2)cs1 |  | inconclusive: 39.8 µM [inhibitor, single point]
O=C(CCCn1c(=O)c2sccc2n(Cc2cc(=O)n3ccccc3n2)c1=O)NCc1ccco1 |  | active: 39.8 µM
CC(=O)c1ccc(OCCCC(=O)Nc2cccc(S(=O)(=O)N3CCCCCC3)c2)cc1 |  | inconclusive: 10 µM [inhibitor, full curve, poor fit]
O=C(Nc1ccc(CN2CCOCC2)cc1)c1cc(Br)ccc1Cl | inactive: -4.17% | 
COCCCNC(=O)c1cc2cc3cc(OC)ccc3nc2o1 | inactive: -5.95% | 
Cc1ccc2c(c1)[C@H]1[C@H](CO2)[C@H](c2ccccc2)[C@]2(C)C(=O)N(Cc3ccccc3)CC(=O)N12 |  | inconclusive: 28.2 µM [inhibitor, single point]

— PubChem BioAssay AID485341 (National Center for Advancing Translational Sciences (NCATS), 2010)
